Assay results: patent publication EP2386565A2, “Compounds and methods to inhibit or augment an inflammatory response” (Cambridge Enterprise Ltd., priority 1999, dated 2000)
Where “and” joins values, the source holds several entries; their conditions need not be identical. Equal entries are not always repeated. Not every detail of the peptide structures is certain; ends, links or a residue may be inferred. Marks after values point to notes of the source that are not given here. No end group written: not given here.

Assays:
[1] = system: MCP-1 induced THP-1 migration; assay: THP-1 trans-well migration assay, MCP-1 as chemoattractant; assay type: cell-based, human; conditions: for ED50 (µM) versus MCP-1: inhibition of THP-1 migration, n.s./ns = not statistically significant; for % inhibition at 100 µM versus MCP-1: THP-1 migration, agent at 100 µM with the cells, n.s. or dash = no statistically significant inhibition
[2] = system: chemokine-induced THP-1 migration; assay: THP-1 trans-well migration assay, several chemokines together (averages, selectivity, pan-chemokine statements); assay type: cell-based, human; conditions: for CC specificity / selectivity ratio: Table 5: average ED50 versus SDF1 and IL8 divided by average ED50 versus MCP-1 and MIP1α; for Average ED50: average inhibitory ED50 for THP-1 migration induced by each of the chemokines
Protocol: To determine whether an agent inhibits a chemokine-induced activity, such as macrophage recruitment, varying amounts of the agent are mixed with cells in the presence of a known chemoattractant. […] Chemokine (such as MCP-1, MIP1α, IL8 or SDF-1α), at a concentration known to cause significant migration of THP-1 cells in the trans-well migration assay, is placed in the lower compartment (Figure 1). Cells are then incubated at 37°C for a period sufficient to allow migration, e.g., 4 hours. After incubation, the cells are gently removed from the top of the filter with a pipette, 20 µl of 20 mM EDTA in simple PBS is added into each top well, and incubated for 20 minutes at 4°C. The filter is carefully flushed with media using a gentle flow, and removed. […] The media is carefully aspirated from each well, and the converted dye is solubilized by 20 µl of DMSO.
Chemotaxis was induced in a 96-well disposable chemotaxis chamber fitted with a 5 µM polycarbonate filter (PVP free, ChemoTX, Neuroprobe Inc., Cabin John). […] The framed filter was aligned with the holes in the corner of the filter frame and placed over the wells.
Peptides were dissolved in Milli Q water and then serially diluted in culture medium. In most cases, the serially diluted peptides were added to the upper compartment of the chemotaxis chamber. The chamber was incubated at 37°C in a humidified atmosphere of 5% CO2 for 4 hours.
After incubation, the cells were gently removed from the top of the filter with a pipette, 20 µl of 20 mM EDTA in PBS was added into each top well, and the mixture was incubated for 20 minutes at 4°C. The filter was then carefully flushed with media using a gentle flow, and removed. […] The curve was based on a two-fold dilution series of THP-1 cells (top standard 100,000 cells in 29 µl). […] The media was carefully aspirated from each well, and the converted dye was solubilized by 20 µl of DMSO.
Representative chemokines included […] ("CC"), MIP-1α and RANTES, and two alpha-chemokines ("CXC"), IL-8 and SDF-1α. Additionally, to determine the specificity ofpeptide 3(1-12)[MCP-1]
The number of pluses is a qualitative indicating of the activity of each peptide in each assay.

[3] = listed as peptide 3(1-12)[MCP-1]

Row | Compound | ED50 (µM) versus MCP-1 [1] | CC specificity / selectivity ratio [2] | Average ED50 [2] [µM] | % inhibition at 100 µM versus MCP-1 [1] | further results
1 | EICADPSEEWVQ [Ser7Glu8Glu9pep3] | 7 µM | 1.6 | 6 | – | –
2 | EICADPSQKWVQ [Ser7peptide 3] | 7 µM | – | 5 | – | –
3 | EICADPKQKWIQ [Ile11peptide 3] | 6 µM | – | 5 | – | –
4 | KQKWVQ [Peptide 3[7-12], KQKWVQ] | 7 µM | 1.0 | 6 | – | ED50, all chemokines tested [2]: 7 to 9 µM
5 | EICLDPKQKWVQ [Leu4peptide 3] | 8 µM | 0.4 | 5 | – | increase in potency as inhibitor of CXC chemokines compared with peptide 3(1-12)[MCP-1] [2]: approximately 4 fold
6 | CADPKQKWVQ [Peptide 3[3-12]] | 8 µM | 1.2 | 8 | – | –
7 | EICLDPKQKWIQ [Leu4Ile11peptide 3] | 2 µM | – | – | – | IC50 ([1]; read-out: MCP-1 inhibitory activity in the THP-1 transwell assay): 1 to 5 µM; potency as inhibitor of CC chemokines compared with peptide 3(1-12)[MCP-1] [2]: approximately 5 fold; Average ED50 ([2]; listed as Leu4Ile11pep3): 2 µM; Average ED50 ([2]; listed as Leu4Ile11peptide 3(1-12)[MCP-1]): 2.3 µM
8 | NCCCC[C@H](NC(=O)[C@H](CCC(N)=O)NC(=O)[C@@H](N)CCCCN)C(=O)O [KQK] | – | – | – | 95 ± 8^b % | ED50 for inhibition of the one chemokine the tripeptide is specific for (column AVERAGE ED50, footnote f) [2]: 6^f µM; specificity for MCP-1 over all the other chemokines tested [2]: more than 100 fold; Chemokine antagonist ([2]; active against migration induced by at least one of IL-8, SDF-1α, MCP-1, MIP1α): +++++
9 | EICADPKQKWVQ [Peptide 3] | 8 ± 1 µM and 8 µM | – | 10 | 112% | % inhibition at 100 µM versus MCP-1 [1, 3]: > 99%; activity in MCP-1 induced THP-1 migration (in words) ([1]; concentration as stated in the block): abolished all of the MCP-1 induced THP-1 migration; ED50 (µM) versus MCP-1 [1, 3]: 8 ± 1 µM; % inhibition of the MCP-1 induced migration at 100 µM ([1]; peptide introduced with the chemokine in the lower compartment): 17%; % inhibition at 100 µM of migration induced by any of the chemokines tested ([2]; 100 µM, CC and CXC chemokines): > 99%
10 | SYRRITSSKCPKEAV [Peptide 2] | n.s. | – | – | n.s. | % inhibition at 100 µM versus MCP-1 ([1]; listed as Peptide 2[MCP-1]): 19%; ED50 (µM) versus MCP-1 ([1]; listed as SYRRITSSKCPKEAV): ns
